# The campaign covered roughly 420,000 compounds. About 64,000 (15%) were called active. Inconclusive means that the source gave no clear call. Such entries were picked first, then a sample of the others. Calls come from the whole dose curve; as a rule, active = well fitted inhibition curve with a large enough effect; inconclusive = small, poorly fitted or top-dose-only effect; inactive = flat fitted curve, though single readings scatter. Potencies of inconclusive entries are left out as doubtful fits.
# Assay: qHTS for Inhibitors of human tyrosyl-DNA phosphodiesterase 1 (TDP1): qHTS in cells in absence of CPT; note: nearly all actives have a fitted effect of over 55% in size
# Conditions: DT40 Tdp1-/- hTDP1 cells, no CPT, ATP luminescence, 48 h; activity change, negative = growth inhibition: at 46.2 µM (top of the series) unless noted
# Method in brief: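 Readout: luminescence from CellTiter-Glo after 30 min in the dark at RT. Cells: DT40 Tdp1-/- with stable hTDP1, 400/well. Exposure: compounds alone, ≥48 hr, 37 °C.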
# % is set by controls: 0 for no effect and ±100 for the full control effect; potency is the fitted concentration of half-maximal effect; tags give direction and shape of the fitted curve.
SMILES,Potency,"activity change, negative = growth inhibition"
Oc1cccc(Nc2cc(-c3ccccc3)ncn2)c1,"inconclusive [inhibitor, single point]",–
Cc1ccsc1/C=N/n1c(-c2cc(-c3ccccc3)n[nH]2)n[nH]c1=S,"inconclusive [inhibitor, single point]",–
O=C(CNC(=O)c1ccccc1F)N/N=C/c1cccnc1,inactive,–
Cc1cc(C(=O)CN2C(=O)NC3(CCCc4sccc43)C2=O)c(C)n1-c1ccccc1 (centres undefined),inactive,–
CCN1CCN(C(=O)CN(c2cc(OC)ccc2OC)S(C)(=O)=O)CC1,inactive,–
CC1(C)CC(=O)N(CC(=O)NC2CCCC2)c2ccccc2S1(=O)=O,inactive,–
CCOc1ccc(-c2cc(CCCC(=O)NCCc3ccc(OC)c(OC)c3)no2)cc1,"inconclusive [inhibitor, single point]",–
CC1CCCN(CC(O)COc2ccc(S(=O)(=O)N3CCCC3)cc2[N+](=O)[O-])C1 (centres undefined),inactive,–
Fc1ccc(C[n+]2csc3ccccc32)cc1,active: 0.92 µM,–
O=C(NC1CC1)C1=C[C@H](C2CCCCC2)C[C@H](OCc2ccc(CO)cc2)O1,"inconclusive [inhibitor, partial curve]",–
Cc1cc(S(=O)(=O)NCC(C)C)ccc1OCC(=O)NCC1CCCO1 (centres undefined),inactive,–
O=C(c1cnn2c(C(F)(F)F)cc(-c3ccccc3)nc12)N1CCCCC1c1cccnc1 (centres undefined),"inconclusive [inhibitor, single point]",–
COc1ccc(-c2nc(-c3ccc(NC(=O)c4ccncc4)cc3)no2)cc1OC,active: 7.31 µM,–
N#C/C(C(=O)NCc1ccccc1)=C1/N=C(NC(=O)c2ccco2)c2ccccc21,"inconclusive [inhibitor, single point]",–
COc1ccc(OC)c(Nc2nc(N)nc(CCl)n2)c1,active: 18.4 µM,–
CCN1C(=S)N[C@@H](CCc2ccccc2)[C@H](C(=O)OC)[C@H]1C,"inconclusive [inhibitor, single point]",–
CNC(CC(C)C)C(=O)NC1C(=O)NC(CC(N)=O)C(=O)NC2C(=O)NC3C(=O)NC(C(=O)NC(C(=O)O)c4cc(O)cc(O)c4-c4cc3ccc4O)C(O)c3ccc(c(Cl)c3)Oc3cc2cc(c3OC2OC(CO)C(O)C(O)C2OC2CC(C)(N)C(O)C(C)O2)Oc2ccc(cc2Cl)C1O (centres undefined),inactive,–
CC(C)CC(=O)NC(=S)Nc1cccc(NC(=O)c2ccccc2)c1,"inconclusive [inhibitor, single point]",–
CCCCC(=O)NCCNc1nc2c(c(=O)n(C)c(=O)n2C)n1Cc1ccc(F)cc1,"inconclusive [inhibitor, single point]",–
CN1CCN(C(=O)/C(=C\c2ccccc2)c2ccccc2)CC1,inactive,–
CC1(C)C2(C#N)C(=O)NC(=O)C12C#N (centres undefined),inactive,–
COC(=O)CCSc1cc([N+](=O)[O-])cc2c1c(C1OCCO1)nn2-c1ccccc1,inactive,–
CC(C)CNC(=O)COC(=O)c1n[nH]c2ccccc12,inactive,–

SMILES,Potency,"activity change, negative = growth inhibition"
O=C(CN1CCN(S(=O)(=O)c2ccc(Br)cc2)CC1)N/N=C/c1ccc(Br)s1,"inconclusive [inhibitor, single point]",–
O=C(Nc1ccc(Cl)c(Cl)c1)c1cccc(S(=O)(=O)NCc2cccnc2)c1,active: 11.6 µM,–
Cc1cc(C)c2c(n1)nn1c(N3CCN(c4ccccc4C)CC3)cc(C)nc21,"inconclusive [inhibitor, partial curve, poor fit]",–
Cc1csc(NC(=O)c2ccc(Cn3nc(C)c(Br)c3C)o2)n1,active: 20.6 µM,–
COc1cc(-c2noc(C)c2C#CC2(O)CCCCC2)cc(OC)c1OC,active: 20.6 µM,–
Cn1nc(C(=O)NCCc2ccc3c(c2)OCCO3)c2ccccc2c1=O,"inconclusive [inhibitor, single point]",–
COc1cccc(NC(=O)CN(C)C(=O)c2ccc(N3CCCCC3)c([N+](=O)[O-])c2)c1,–,inconclusive: -33.2% [inhibitor]
COc1ccc(/C=C2/C(=O)N(c3ccccc3)N=C2C)cc1Br,"inconclusive [inhibitor, single point]",–
Cc1cc(C)cc(NC(=O)COC(=O)CN=C2NS(=O)(=O)c3ccccc32)c1,inactive,–
CC(C)C(=O)Nc1cccc(NC(=S)NC(=O)c2ccc(Cl)cc2)c1,active: 16.4 µM,–
O=C(Nc1cccc(O)c1)c1cc(-c2ccccc2F)no1,"inconclusive [inhibitor, single point]",–
Cc1ccc(C)c(CSc2cn(CCNC(=O)c3cccs3)c3ccccc23)c1,active: 23.1 µM,–
O=C(NCc1cccnc1)c1cc(-c2ccccc2)on1,"inconclusive [inhibitor, partial curve]",–
CCOC(=O)C1CCCN(C(=S)Nc2ccc(S(=O)(=O)N3CCOCC3)cc2)C1 (centres undefined),active: 16.4 µM,–
Cc1ccc(CSc2nc3cc(C(=O)NC4CCCC4)ccc3c(=O)n2Cc2ccccc2)cc1,"inconclusive [inhibitor, single point]",–
CC(C)c1nc2oc3c(=O)[nH]cnc3c2c2c1CCC2,inactive,–
COc1ccc(C(=O)OC(C)C(=O)NC(C)CCc2ccccc2)c(OC)c1 (centres undefined),"inconclusive [inhibitor, single point]",–
CCOC(=O)C1=C(C)N(C[C@@H]2CC[C@@H](Cc3ccc(-c4ccccc4)cc3)O2)C(=O)NC1c1ccc(SCc2ccco2)c([N+](=O)[O-])c1 (some centres undefined),"inconclusive [inhibitor, single point]",–
O=c1cc(N2CCCCC2)c(-c2ccccc2)nn1Cc1ccccc1Cl,"inconclusive [inhibitor, single point]",–
Cc1nn(C)c(Oc2ccccc2)c1CCNS(=O)(=O)c1ccc(Cl)cc1,active: 16.4 µM,–
O=C(NCc1ccccc1C(F)(F)F)C1CCC(=O)N(CCCc2ccccc2)C1 (centres undefined),active: 29.1 µM,–
Cc1ccsc1CN(C)C(=O)c1ccc(Oc2ccccc2)cc1,inactive,–
COc1ccc(CCN2C(=O)N(c3ccc(C)cc3)C(=O)C2CC(=O)Nc2ccc(OC)cc2)cc1 (centres undefined),"inconclusive [inhibitor, partial curve, poor fit]",–

SMILES,Potency,"activity change, negative = growth inhibition"
c1ccc2c(C[C@@H]3CNCCN3CCC34CC5CC(CC(C5)C3)C4)cccc2c1,"inconclusive [inhibitor, single point]",–
COc1cc2nc(=S)n3[nH]c(CCn4nc(C)cc4C)nc3c2cc1OC,active: 1.3 µM,–
O=C(COc1cc(Cl)ccc1Cl)Nc1ccc2c(c1)CCC2,"inconclusive [inhibitor, partial curve]",–
CCC1=C(NCc2ccccc2)COC1=O,inactive,–
CC1CCN(C(=O)CSc2nnc3c(n2)[nH]c2ccc(F)cc23)CC1,"inconclusive [inhibitor, partial curve]",–
CC1=C(C(=O)OC2CCCCC2)C(c2ccc(C)o2)C2=C(CCCC2=O)N1 (centres undefined),"inconclusive [inhibitor, partial curve, poor fit]",–
COc1ccc(OC)c(N(CC(=O)Nc2cccnc2)S(=O)(=O)c2ccc(OC)c(OC)c2)c1,"inconclusive [inhibitor, partial curve]",–
Cc1cccc(N2CCN(C(=O)CN3C(=O)C4CC=CCC4C3=O)CC2)c1C (centres undefined),"inconclusive [inhibitor, partial curve, poor fit]",–
Cc1cc(F)ccc1C(O)c1ncc(-c2ccc(Oc3ccccc3)cc2)[nH]1 (centres undefined),"inconclusive [inhibitor, single point]",–
COc1cc(NC(=O)c2cc(S(=O)(=O)N3CCC(C)CC3)cn2C)cc(OC)c1OC,inactive,–
Cc1cc(C)nc(N/N=C2/CCSc3ccc(F)cc32)n1,"inconclusive [inhibitor, single point]",–
CN(C)c1cccc(C(=O)OC(C(=O)Nc2ccc([N+](=O)[O-])cc2Br)c2ccccc2)c1 (centres undefined),"inconclusive [inhibitor, partial curve]",–
Cc1ccc2c(c1)COc1c3ccc(C(=O)N4CCCCC4)cc3nn1-2,active: 25.9 µM,–
CCOC(=O)C1CCCN(C(=O)Cn2ncc3c4ccccc4n(C)c3c2=O)C1 (centres undefined),"inconclusive [inhibitor, full curve]",–
Cc1ccsc1C(=O)Nc1cc(C(C)(C)C)nn1-c1ccccc1,"inconclusive [inhibitor, single point]",–
CCOC(=O)N1CCC(NC(=O)C2CCCN(c3nc4ccccc4o3)C2)CC1 (centres undefined),inactive,–
O=C(NCC1CC1)c1cccc2c1C(=O)c1ccc(-c3ccc(OC(F)(F)F)cc3)cc1S2(=O)=O,active: 23.1 µM,–
O=C(c1ccc2ccccc2n1)N1CCN(S(=O)(=O)c2ccc(Cl)cc2)CC1,"inconclusive [inhibitor, single point]",–
O=C(c1ccccc1)N1CCN(C(=O)c2nn3c(C(F)(F)F)cc(-c4ccco4)nc3c2Cl)CC1,"inconclusive [inhibitor, partial curve]",–
O=C(Nc1cnn(Cc2ccccc2)c1)c1cc2nc(-c3ccco3)cc(C(F)(F)F)n2n1,"inconclusive [inhibitor, full curve]",–
CCC(Cc1ccccc1)NS(=O)(=O)c1ccc2c(c1)NC(=O)CS2 (centres undefined),"inconclusive [inhibitor, single point]",–
Cc1ccc(O)c(Nc2c3ccccc3nc3ccccc23)c1,"inconclusive [inhibitor, single point]",–
COc1ccc(CCC(C)NC2C3CC4CC(C3)CC2C4)cc1 (centres undefined),"inconclusive [inhibitor, single point]",–
